# Measurements published in PubChem BioAssay AID504332 (National Center for Advancing Translational Sciences (NCATS), 2011).
# In all, about 350,000 compounds went through this assay and about 31,000 (8.9%) were called active. This list was built around the results that the source calls inconclusive (neither active nor inactive); the mix of calls is not that of the screen. The call rests on the fitted dose curve; in most records, active means well fitted inhibition curve with a large enough effect; inconclusive means small, poorly fitted or top-dose-only effect; inactive means no such curve, though single readings can be large or run the other way. A potency beside an inconclusive call is a rough fit, not a confirmed value.
# Molecular target: Histone-lysine N-methyltransferase EHMT2 (Homo sapiens) (UniProt Q96KQ7)
# Experiment: qHTS Assay for Inhibitors of Histone Lysine Methyltransferase G9a; further: nearly all actives have a fitted effect of over 75% in size
# Conditions: G9a H3K9 monomethylation, AlphaScreen, 2 h; activity, negative = inhibition: at 59 µM (top of the series) unless noted
# Method in brief: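 Readings reflect AlphaScreen signal from monomethyl-H3K9 antibody detection. HMT at 20 nM; substrate b-H3K9 500 nM; cofactor SAM 20 uM; 2 h RT reaction; compounds tested as titrations in qHTS with 15 min preincubation.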
# On the % scale 0 is the no-effect control and ±100 the full control effect; potency means the concentration at half of the fitted maximal effect; tags describe the fitted curve by direction and shape.
# Sequence of UniProt Q96KQ7 (Q96KQ7 whole entry, looked up): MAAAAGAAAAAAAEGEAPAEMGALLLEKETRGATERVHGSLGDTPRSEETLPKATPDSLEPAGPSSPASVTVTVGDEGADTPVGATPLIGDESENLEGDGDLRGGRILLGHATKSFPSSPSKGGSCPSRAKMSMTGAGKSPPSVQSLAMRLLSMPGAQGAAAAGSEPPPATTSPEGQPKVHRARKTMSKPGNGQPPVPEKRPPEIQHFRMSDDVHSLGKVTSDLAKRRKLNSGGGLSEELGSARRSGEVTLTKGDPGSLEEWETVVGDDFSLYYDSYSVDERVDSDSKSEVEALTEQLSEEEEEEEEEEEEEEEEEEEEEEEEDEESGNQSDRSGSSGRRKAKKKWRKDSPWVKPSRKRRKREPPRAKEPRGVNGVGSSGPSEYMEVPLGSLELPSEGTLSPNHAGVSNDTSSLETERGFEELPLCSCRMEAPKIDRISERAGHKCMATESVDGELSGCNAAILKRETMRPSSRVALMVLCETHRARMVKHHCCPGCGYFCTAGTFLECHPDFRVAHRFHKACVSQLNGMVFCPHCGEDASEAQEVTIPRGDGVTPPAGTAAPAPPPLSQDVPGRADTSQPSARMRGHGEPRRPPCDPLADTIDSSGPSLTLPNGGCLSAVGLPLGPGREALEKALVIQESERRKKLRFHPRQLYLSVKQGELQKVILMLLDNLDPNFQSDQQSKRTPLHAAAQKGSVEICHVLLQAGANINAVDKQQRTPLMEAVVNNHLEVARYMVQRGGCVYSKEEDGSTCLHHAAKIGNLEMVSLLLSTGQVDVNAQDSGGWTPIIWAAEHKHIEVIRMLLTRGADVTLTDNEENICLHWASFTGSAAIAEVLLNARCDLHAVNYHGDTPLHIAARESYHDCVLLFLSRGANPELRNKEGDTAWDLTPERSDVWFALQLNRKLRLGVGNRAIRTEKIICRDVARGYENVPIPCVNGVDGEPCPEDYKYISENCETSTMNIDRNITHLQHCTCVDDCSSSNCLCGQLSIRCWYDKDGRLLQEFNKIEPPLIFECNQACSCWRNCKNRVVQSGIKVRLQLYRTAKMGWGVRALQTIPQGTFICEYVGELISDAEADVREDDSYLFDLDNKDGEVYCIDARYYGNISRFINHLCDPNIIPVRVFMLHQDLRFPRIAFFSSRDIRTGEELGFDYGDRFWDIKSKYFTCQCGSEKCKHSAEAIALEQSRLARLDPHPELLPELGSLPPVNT
Structure (SMILES),Potency,"activity, negative = inhibition"
COc1ccc(S(=O)(=O)N2CCN(CC(=O)NC3CCCC3)CC2)cc1,"inconclusive: 89.1 µM [inhibitor, single point]",
Cc1cc(C)cc(NC(=O)CSc2ccc(-c3cccs3)nn2)c1,active: 22.4 µM,
CC(=O)N(C(C)=O)N1C(=O)C2C3c4ccccc4C(c4ccccc43)C2C1=O (stereo unspecified),"inconclusive: 25.1 µM [inhibitor, partial curve]",
CCSc1nnc(NC(=O)CSc2nnc(CNC(=O)c3cc(OC)c(OC)c(OC)c3)o2)s1,"inconclusive: 89.1 µM [inhibitor, single point]",
Cc1nnc(SCC(=O)N2N=C(c3ccc(Cl)cc3)CC2c2ccco2)[nH]c1=O (stereo unspecified),"inconclusive: 31.6 µM [inhibitor, single point]",
CCOC(=O)c1ccc2ncc(C(=O)OCC)c(Nc3ccc(N4CCOCC4)cc3)c2c1,"inconclusive: 31.6 µM [inhibitor, single point]",
CCCc1nc2ccccc2c(C(=O)OCC(=O)c2ccc3c(c2)NC(=O)CO3)c1CC,,inactive: 16.7% [at 12.7 µM]
COCC(C)n1c(C)cc(C(=O)COC(=O)C2=NN(c3ccccc3)C(=O)CC2)c1C (stereo unspecified),inactive,
COc1ccc(CCNC(=O)c2ccc3c(c2)SC2=NS(=O)(=O)CCN23)cc1,,inconclusive: -95.5% [inhibitor]
CC1(C)C(c2ccccc2)=[N+]([O-])CN1O,inactive,
CCOC(=O)C1(C)/C(=N/Nc2ccc(Cl)cc2)C(=O)C(=O)N1c1ccccc1 (stereo unspecified),"inconclusive: 2 µM [inhibitor, partial curve, poor fit]",
O=C(c1ccco1)N1CCN(C(c2ccccc2Cl)c2nnnn2CC2CCCO2)CC1 (stereo unspecified),"inconclusive: 39.8 µM [inhibitor, single point]",
Cc1ccccc1-n1c(SCC(=O)NC(N)=O)nc2sc(-c3ccccc3)cc2c1=O,"inconclusive: 79.4 µM [inhibitor, partial curve, poor fit]",
O=[N+]([O-])c1cccc(-c2ncc3ccccn23)c1,inactive,
CC1(C)CC(=O)c2sc(NC(=O)CN3CCCCC3)nc2C1,active: 14.1 µM,
O=S1(=O)CCN(Cc2cccc(Cl)c2)CC1,inactive,
CCc1cc(C(=O)OC)c(NC(=O)CCC(=O)O)s1,active: 14.1 µM,
O=C(NCc1ccccn1)C(F)(F)C(F)(F)C(=O)NCc1ccccn1,,inconclusive: -63.4% [inhibitor] [at 12.7 µM]
Cc1ccc(-c2ccc(/C=C3\SC(N4CCOCC4)=NC3=O)o2)cc1,active: 31.6 µM,
COc1ccc(COCC(O)CN2CCN(S(=O)(=O)c3ccc(C(C)C)cc3)CC2)cc1 (stereo unspecified),"inconclusive: 3.98 µM [inhibitor, partial curve, poor fit]",
O=C(NNc1cccc(Cl)n1)Nc1cccc(C(F)(F)F)c1,inactive,
CCC(C)NC(=O)C(=O)NCC1CCCN1CC (stereo unspecified),inactive,
CC(=O)Nc1ccc(C)cc1-c1nc2ccccc2n(CC(=O)c2ccc(C)c(C)c2)c1=O,inactive,

Structure (SMILES),Potency,"activity, negative = inhibition"
CCCC(=O)Nc1ccc(-c2cn3cccnc3n2)cc1,"inconclusive: 70.8 µM [inhibitor, partial curve, poor fit]",
N#Cc1cc([N+](=O)[O-])c2sc(C(N)=O)[n+]([O-])c2c1,active: 28.2 µM,
CCn1nnc(NC(=O)c2ccc(C(C)(C)C)cc2)n1,inactive,
CCC(C)(C)n1nnnc1C(c1ccc2ncccc2c1)N1CCN(c2nc3ccccc3s2)CC1 (stereo unspecified),"inconclusive: 28.2 µM [inhibitor, single point]",
CC(C)COC(=O)N1CC(O)CC1C(=O)Nc1ccc2c(c1)OCO2 (stereo unspecified),"inconclusive: 8.91 µM [inhibitor, single point]",
CCOc1ccccc1N1CCN(C2=C(NS(=O)(=O)c3cccs3)C(=O)c3ccccc3C2=O)CC1,"inconclusive: 1.41 µM [inhibitor, single point]",
O=C(CN1C(=O)c2cccc([N+](=O)[O-])c2C1=O)N1CCN(c2ccc(F)cc2)CC1,"inconclusive: 79.4 µM [inhibitor, single point]",
CC(C)CCCC(C)CCCC(C)CCCCC(C)CCCC(C)CCCC(C)C (stereo unspecified),inactive,
Cc1ccc(N(CC(=O)N2CCN(c3ccccc3)CC2)S(=O)(=O)c2c(C)noc2C)cc1,"inconclusive: 28.2 µM [inhibitor, partial curve, poor fit]",
C=CCN(C(=O)Cn1c(C(=O)OC)cc2oc(C)cc21)c1ccccc1,active: 44.7 µM,
Cc1cc(C(=O)CSc2nn3c(=O)c(C(C)(C)C)nnc3s2)c(C)n1C1CC1,"inconclusive: 63.1 µM [inhibitor, single point]",
CC(=O)Nc1ccc(NC(=O)/C=C/c2ccc3c(c2)OCO3)cc1,inactive,
CC(C)CC(=O)NS(=O)(=O)c1ccc(NC(=O)c2ccco2)cc1,"inconclusive: 31.6 µM [inhibitor, partial curve]",
C#CCNC(=O)C1=C[C@@H](c2ccc(C(F)(F)F)cc2)C[C@@H](OCCCCO)O1,,inconclusive: -70.1% [inhibitor]
O=C(Nc1nnc(-c2ccccc2Cl)o1)c1nc2ccccc2s1,inactive,
COc1ccc(C2=NN(C(=O)c3ccco3)C(c3ccco3)C2)cc1OC (stereo unspecified),"inconclusive: 89.1 µM [inhibitor, single point]",
COc1ccc(C(=O)Nc2ccc3c(c2)n(C)c(=O)n3C)cc1OC,inactive,
Cc1ccc(N2C(=O)c3cccc4c(N)ccc(c34)C2=O)c2cccnc12,,inconclusive: -72.4% [inhibitor]
Cc1ccc(-c2noc(-c3nnn(CC(=O)Nc4ccc(C)c(Cl)c4)c3N)n2)cc1,inactive,
O=C(Nc1cc(S(=O)(=O)N2CCOCC2)ccc1O)c1ccc(NS(=O)(=O)c2ccc(Cl)s2)cc1,"inconclusive: 25.1 µM [inhibitor, single point]",
O=C(CSc1ncccn1)NCc1ccccc1,inactive,
O=C1NC(c2ccccc2)=C(c2ccc3ccccc3n2)C(c2ccncc2)N1 (stereo unspecified),active: 50.1 µM,
C[C@H](NC(=O)OCc1ccccc1)c1nnc([C@H](Cc2ccccc2)NC(=O)OC(C)(C)C)o1,inactive,
